# Test results from the supplement of paper PMC7826260.
# The other results are listed elsewhere or left out. The data describe in vitro nicking of single-stranded DNA by Rep domains at 3 µM enzyme and 37 °C for 1 h; the strands have 90 letters, of which the middle is given. The score is log2 (uncut reads / reads without enzyme); the lower, the more was cut; hits are not called. Shares of all reads are compared; where an enzyme cuts many sequences, the uncut ones exceed 0.
# Test system: T1, Rep nickase domain of tomato golden mosaic virus
# T1 sequence (Rep 1-124, printed without the tag): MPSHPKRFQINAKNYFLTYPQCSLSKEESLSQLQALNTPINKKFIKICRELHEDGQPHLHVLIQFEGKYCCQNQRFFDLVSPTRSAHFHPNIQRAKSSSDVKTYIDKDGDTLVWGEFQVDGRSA
# Assay: uncleaved DNA left, log2 of reads against the no-enzyme library (log2 ratio); higher = less cleavage (more negative = more Rep cleavage of the k-mer); sequences stand for … in CTCGTCCG…ACCGGAGA
# Method: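 A pool of 90-nt single-stranded DNAs with seven random bases just before the constant AC of the nick site (name = the seven bases) was cut by 3 µM recombinant His6-SUMO-tagged Rep nickase domain (300 nM DNA, 50 mM HEPES pH 8.0, 50 mM NaCl, 1 mM MnCl2, 1 h, 37 °C, three replicates). Uncut DNA was amplified and sequenced.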
row,Sequence,uncleaved DNA left (log2)
1,TGGAAGA,-0.0239
2,ACATCCC,-0.0322
3,CGGAGCA,0.113
4,TGCGGGA,-0.0533
5,ACCCACG,-0.0473
6,AGTGAAA,0.081
7,CATCTGG,-0.0221
8,TGCAAAG,0.176
9,TATCGCG,-0.0308
10,GTTAAAA,0.0715
11,TTAGGGT,0.209
12,CTCTTGA,-0.0643
13,ATTGCCT,-0.172
14,GTAAGCT,-0.017
15,GGACGGC,-0.0437
16,TGCCCTC,-0.165
17,AACTTAG,0.0925
18,AGACTAA,0.0513
19,GAATTCC,0.0438
20,TAAGACA,-0.0565

row,Sequence,uncleaved DNA left (log2)
1,TGTGCCA,0.0965
2,ACTAATG,0.181
3,AAAAACT,-0.309
4,CTGGAAT,0.132
5,GTCCAGC,0.123
6,GTACCCC,0.14
7,GTTGGCT,0.198
8,ATATACC,-0.032
9,TGCAAGC,0.0498
10,TTAAATC,0.0696
11,GCGACTC,0.00134
12,GCGAAGA,0.024
13,GGCAACT,0.0829
14,CGTACCA,-0.0232
15,TTAACCG,-0.0261
16,CTCTGTC,-0.0106
17,GCGGCGC,-0.183
18,GTAGTAG,0.101
19,TTCCTCT,-0.141
20,TTTGGGT,-0.0324
